How the values were obtained:
[1] = test system: patients suffering from acute ethylism; experiment: Aggressivity in patients with acute ethylism (i.v. treatment); conditions: P 250 mg (11 patients), PCP 300 mg (17 patients)
[2] = test system: patients suffering from acute ethylism; experiment: Psychomotor excitation in patients with acute ethylism (i.v. treatment); conditions: P 250 mg (17 patients), PCP 300 mg (22 patients)
cases of acute ethylism = conditions: about 20 cases each week; cited from earlier work

Q: Which results are given for `Cc1ncc(CO)c(CO)c1O.Cl` [P, pyridoxine hydrochloride, reference compound]?
A: Aggressivity, worsening or persistence, % of patients [1]: 0%; Aggressivity, worsening or persistence, number of patients [1]: 0 N.; Aggressivity, ready improvement <1 h., % of patients ([1]; <1 h.): 18.1%; Aggressivity, ready improvement <1 h., number of patients ([1]; <1 h.): 2 N.; Aggressivity, slow improvement <6 h., % of patients ([1]; <6 h.): 81.8%; Aggressivity, slow improvement <6 h., number of patients ([1]; <6 h.): 9 N.; Psychomotor excitation, worsening or persistence, % of patients [2]: 5.7%; Psychomotor excitation, worsening or persistence, number of patients [2]: 1 N.; Psychomotor excitation, rapid improvement <1 h., % of patients ([2]; <1 h.): 11.8%; Psychomotor excitation, rapid improvement <1 h., number of patients ([2]; <1 h.): 2 N.; Psychomotor excitation, slow improvement <6 h., number of patients ([2]; <6 h.): 14 N.

Q: What does the source list for `Cc1ncc(CO)c(CO)c1O` [pyridoxine]?
A: Results as regards minor effects (space-time orientation, statics and equilibrium) (cases of acute ethylism): favourable; Results as regards psychomotor excitation (cases of acute ethylism): inconstant results

— patent US4313952A, “Method of treating acute alcoholic intoxication with pyridoxine P.C.A” (priority 1980, dated 1982)
